Measured values as given in PubChem BioAssay AID463173 (ICCB-Longwood Screening Facility, Harvard Medical School, 2010).
Among all 52,000 compounds or so, about 1,700 (3.3%) were called active. No stated cut-off is given here; in the data, active means survival mostly below about 52% (no sharp cut-off); inactive means mostly above about 56%. Some of the results follow.

test system: Wild type; assay: S. aureus survival, RN4220 and DeltatarO strains – OD600, teichoic acid synthesis inhibitors, primary screen (AID 463173); settings: S. aureus RN4220 wild type/DeltatarO growth, OD600, 18 h, hits give low values, screened at 18.75 µg/mL (by protocol)

| SMILES | survival |
| --- | --- |
| CCc1nn(CC(=O)N2CCN(c3cccc(C(F)(F)F)c3)CC2)c(=O)c2cccn12 | inactive: 108% |
| Cc1nc2ccccc2n1CCc1nc2c3ccccc3nc(SCc3ccc(F)cc3)n2n1 | inactive: 138% |
| CCCCN(C)C(=O)Cn1c(SCC(=O)Nc2ccc(C)c(C)c2)nc2ccccc21 | active: 14% |
| CCOC(=O)C1(C)C=C(Nc2ccc(C(=O)O)cc2)C(=O)N1c1ccc(C(=O)O)cc1 (stereo unspecified) | inactive: 124% |
| COc1ccc2c(c1)c1c(c(=O)n(-c3ccccc3C)c(=O)n1Cc1c(F)cccc1Cl)n2C | inactive: 105% |
| O=c1sc2ccccc2n1CCc1ccccc1 | inactive: 108% |
| Cc1cccc(Nc2c3c(nc4nncn24)CCC3)c1C | inactive: 98% |
| COc1ccccc1N1CCN(CC(O)COc2ccc(C)cc2C(C)(C)C)CC1 (stereo unspecified) | active: 2% |
| CC1=C(C)CC2C(=O)N(Cc3ccccc3)C(=O)C2C1 (stereo unspecified) | inactive: 99% |
| CCOC(=O)c1c(C)oc2nc(C)nc(NCC3CCN(Cc4cccc(Cl)c4)CC3)c12 | inactive: 83% |
| CCOC(=O)C1CCCN(C(=O)Cn2nc(CC)n3c(cc4occc43)c2=O)C1 (stereo unspecified) | inactive: 78% |
| Cc1cccc(NC(=O)C2CCCN(c3nc4ccccc4s3)C2)c1C (stereo unspecified) | inactive: 88% |
| Cc1ccc(C)c(N2CCN(CCCNC(=O)Nc3ccc(Cl)cc3)CC2)c1 | active: -6% |
| COc1cccc2cc(-c3nc(-c4ccc(C)cc4)c(C)s3)c(=O)oc12 | inactive: 64% |
| O=c1cc(CSc2nnc(Cn3nnc4ccccc43)o2)c2ccccc2[nH]1 | inactive: 108% |
| Cc1ccc(C(=O)Nc2ccc3nc(N4CCCCC4)cc(C)c3c2)cc1F | inactive: 65% |
| Cc1ccc(NC(=O)CCNS(=O)(=O)c2ccc3c(c2)CCCC(=O)N3)cc1 | inactive: 73% |
| Cc1ccc(CCNC(=O)c2ccc(CS(=O)(=O)Cc3ccccc3F)o2)cc1 | inactive: 71% |
| CCOc1ccccc1NC(=O)CN1C=NS(=O)(=O)c2ccccc21 | inactive: 59% |

| SMILES | survival |
| --- | --- |
| O=S(=O)(Nc1ccc(Cl)cc1)c1cccc(S(=O)(=O)c2ccc(Cl)c(Cl)c2)c1 | inactive: 34% |
| Cc1cc(Nc2ccc(F)cc2)nc(-n2nc(C)cc2C)n1 | inactive: 81% |
| CC(=O)c1ccc(N2C(=O)N(Cc3cc(C)ccc3C)c3ccccc3S2(=O)=O)cc1 | inactive: 87% |
| O=C(CN1CCC(n2nnc3cc(C(F)(F)F)ccc32)CC1)Nc1ccc(N2CCCC2)cc1 | inactive: 95% |
| COc1ccc(NC(=O)Cc2noc3ccc(C)cc23)cc1Cl | inactive: 92% |
| CC1=C(C(=O)Nc2cccc(C(F)(F)F)c2)C(c2ccccc2)n2ncnc2N1 (stereo unspecified) | inactive: 101% |
| CCc1cccc(C)c1NC(=O)CCn1nc(C)c2c(C)n(-c3ccccc3)nc2c1=O | inactive: 69% |
| COc1cccc(N2CC(NC(=O)C3CC3)CC2=O)c1 (stereo unspecified) | inactive: 79% |
| COc1ccc(NC(=O)Cn2c(=O)n(-c3ccc(C)c(C)c3)c(=O)c3c(C)c(C)sc32)cc1 | inactive: 144% |
| CCOc1ccc2c(c1)c(=O)c(C(=O)c1ccc(CC)cc1)cn2CC(=O)Nc1ccccc1C | inactive: 78% |
| Cc1ccc(C)c(N2CCN(c3nc4c(S(=O)(=O)c5ccccc5)nnn4c4ccc(Cl)cc34)CC2)c1 | inactive: 97% |
| COc1ccc(N2CCN(c3cc(C)nc4nncn34)CC2)cc1 | inactive: 93% |
| CCOC(=O)/C(C#N)=N\Nc1ccccc1OC | inactive: 105% |
| Cc1ccc(CCNC(=O)c2ccc(NC(=O)N3CCSc4ccccc43)cc2)cc1 | inactive: 75% |
| Cc1ccc(NC(=O)Cn2nnc(C(=O)NCCc3ccccc3)c2N)cc1Cl | inactive: 79% |
| COCC(=O)N1c2nc(-c3ccco3)nn2C2(CCCCC2)[C@@H]2CCCC[C@@H]21 | inactive: 80% |
| CCc1ccc2c(c1)c(=O)c(S(=O)(=O)c1ccccc1)cn2CC(=O)Nc1ccc(OC)cc1 | inactive: 83% |
| CCOC(=O)c1c(S(=O)(=O)N2CCC(C(=O)Nc3cccc(C)n3)CC2)c(C)n(C)c1C | inactive: 74% |
| CCC(C)NC(=O)Cn1c(=O)ccc2cc(S(=O)(=O)N3CCCC3)ccc21 (stereo unspecified) | inactive: 32% |

| SMILES | survival |
| --- | --- |
| CCCN(C(=O)c1cc2c(=O)oc3ccccc3c2s1)c1ccccc1C | inactive: 58% |
| COc1ccc(NC(=O)CN2C(=O)C3(SCC(=O)N3c3cccc(OC)c3)c3ccccc32)cc1 (stereo unspecified) | inactive: 72% |
| O=C(CSc1nc2ccsc2c(=O)n1Cc1ccccc1Cl)NCc1ccc(Cl)cc1 | inactive: 75% |
| O=C(CSc1nc2ccccc2n1Cc1c(F)cccc1Cl)N1CCN(c2ccc(F)cc2)CC1 | inactive: 78% |
| CCOc1cc(CNC(=O)c2ccc3nc(CCc4ccccc4)oc3c2)ccc1OC | inactive: 65% |
| Cc1ccc(CNC(=O)C(C)n2ccc3cc(S(=O)(=O)N4CCCC4)ccc32)cc1 (stereo unspecified) | inactive: 66% |
| O=C(Nc1nnc(SCc2cc(=O)n3cc(Cl)ccc3n2)s1)c1cccc(F)c1 | inactive: 59% |
| O=C(c1ccc2c(Cl)c3c(nc2c1)CCCC3)N1CCN(c2ccccc2F)CC1 | active: 0% |
| Cc1ccc(N2C(=O)SC(Nc3ccccc3)C2=O)cc1 (stereo unspecified) | inactive: 118% |
| CCOc1ccc(N2CC(c3nc4ccccc4n3CCOc3ccc(CC)cc3)CC2=O)cc1 (stereo unspecified) | inactive: 79% |
| COc1ccc(N2CC(NC(=O)c3c(F)cccc3Cl)CC2=O)cc1OC (stereo unspecified) | inactive: 66% |
| CCC(C(=O)N1CCN(c2ccccc2)CC1)n1nc(C)c2sc3ccccc3c2c1=O (stereo unspecified) | inactive: 75% |
| Cc1ccccc1NC(=O)c1cnc2sc(N3CCCC3)nn2c1=O | inactive: 66% |
| COc1cccc(C2=CC(c3ccccc3F)n3c(nc4ccccc43)N2)c1 (stereo unspecified) | inactive: 70% |
| COc1ccc(Cn2c(=O)[nH]c3cc(C(=O)N4CCN(c5cc(Cl)ccc5C)CC4)ccc3c2=O)cc1 | inactive: 65% |
| COC(=O)Cn1cnc2c(cnn2-c2ccc(OC)cc2)c1=O | inactive: 108% |
| COc1ccccc1-c1noc(-c2ccc(NC(C)C)c([N+](=O)[O-])c2)n1 | inactive: 126% |
| COc1ccc(-c2nn(-c3cccc(F)c3)c3c2cnc2cc(OC)c(OC)cc23)cc1 | inactive: 93% |
